According to the antibiotic and cytotoxicity screens of Wong et al. (2023):
The other results are listed elsewhere or left out.

How the values were obtained:
HSkMC = human skeletal muscle cells; test: cytotoxicity call (relative viability < 0.9); conditions: 10 µM
HepG2 = test: cytotoxicity call (relative viability < 0.9); conditions: 10 µM
S. aureus RN4220 = test: growth inhibition call (relative growth <= 0.2); conditions: 50 µM

Row | Compound | cytotoxicity call (HSkMC) | cytotoxicity call (HepG2) | growth inhibition call (S. aureus RN4220)
1 | C[C@@H]1CN([C@@H](C)CO)C(=O)CCCn2cc(nn2)CO[C@H]1CN(C)C(=O)c1ccc(N2CCN(C)CC2)cc1 | inactive | inactive | inactive
2 | C[C@@H]1CCCCO[C@H](CN(C)CC2CCCCC2)[C@@H](C)CN([C@H](C)CO)C(=O)c2cc(NC(=O)c3ccccc3)ccc2O1 | inactive | inactive | inactive
3 | C[C@@H]1CN([C@H](C)CO)C(=O)c2cc(NC(=O)Nc3ccc(C(F)(F)F)cc3)ccc2O[C@@H](C)CCCCO[C@@H]1CN(C)S(=O)(=O)c1ccc(Cl)cc1 | inactive | inactive | inactive
4 | C[C@@H]1CCCCO[C@@H](CN(C)C(=O)Nc2ccc(C(F)(F)F)cc2)[C@H](C)CN([C@@H](C)CO)C(=O)c2cc(NS(=O)(=O)c3cccs3)ccc2O1 | inactive | inactive | inactive
5 | CC(=O)N[C@H](C)c1cn(C)nc1C | inactive | inactive | inactive
6 | CO[C@@H](CNS(C)(=O)=O)c1ccsc1 | inactive | inactive | inactive
7 | CCCCCCCCCCCCCCCCCC(=O)O | inactive | inactive | inactive
8 | CO[C@@H]1CN(C)C(=O)c2ccc(NS(=O)(=O)CC(F)(F)F)cc2OC[C@H](C)N(Cc2nccs2)C[C@H]1C | inactive | inactive | inactive
9 | COc1ccc(CN(C)C[C@@H]2OCCCC[C@@H](C)Oc3ccc(NC(=O)C4CCCCC4)cc3C(=O)N([C@H](C)CO)C[C@H]2C)cc1 | inactive | inactive | inactive
10 | COC(=O)C[C@@H]1C=C[C@@H](N)[C@H](CO)O1 | inactive | inactive | inactive
11 | COc1cc([C@H]2OC[C@](O)(Cc3ccc(O[C@@H]4O[C@H](CO)[C@@H](O)[C@H](O)[C@H]4O)c(OC)c3)[C@@H]2CO)ccc1O | inactive | inactive | inactive
12 | C[C@@H]1CN([C@@H](C)CO)S(=O)(=O)c2ccc(C#Cc3ccccc3F)cc2O[C@@H]1CN(C)C(=O)Cc1cccnc1 | inactive | active | inactive
13 | NCC[C@@H]1CC[C@@H](NC(=O)Nc2ccc(F)cc2)[C@@H](CO)O1 | inactive | inactive | inactive
14 | C[C@H]1CN([C@@H](C)CO)C(=O)c2cccc(NC(=O)C3CCOCC3)c2O[C@@H]1CN(C)Cc1ccccc1 | inactive | inactive | inactive
15 | C[C@H]1CN([C@@H](C)CO)C(=O)CCCn2cc(nn2)CO[C@@H]1CN(C)S(=O)(=O)c1ccc(-n2cccn2)cc1 | inactive | inactive | inactive
16 | C[C@H]1CN([C@@H](C)CO)C(=O)c2cccc(NC(=O)CCCCCC(=O)Nc3ccccc3N)c2O[C@@H]1CN(C)S(C)(=O)=O | inactive | inactive | inactive
17 | C[C@@H]1CCCCO[C@@H](CN(C)Cc2ccc(C(=O)O)cc2)[C@@H](C)CN([C@@H](C)CO)C(=O)c2cc(NC(=O)Nc3ccc(F)cc3)ccc2O1 | inactive | inactive | inactive
18 | CCS(=O)(=O)Nc1ccc2c(c1)C(=O)N(C)[C@H]1CC[C@H](CC(=O)N3CCN(C)CC3)O[C@@H]1CO2 | inactive | inactive | inactive
19 | C[C@H]1CCCCO[C@@H](CN(C)C(=O)NC2CCCCC2)[C@@H](C)CN([C@@H](C)CO)C(=O)c2cc(NC(=O)C3CCCCC3)ccc2O1 | inactive | inactive | inactive
20 | C[C@@H]1CCCCO[C@@H](CN(C)C(=O)CCCN(C)C)[C@@H](C)CN([C@H](C)CO)C(=O)c2cc(NS(=O)(=O)c3cn(C)cn3)ccc2O1 | inactive | inactive | inactive
21 | C=CC[C@@H](CC(=O)N[C@@H](CO)Cc1ccccc1)C(=O)N[C@H](COC(=O)[C@@H](CC=C)Cc1ccc(F)cc1)Cc1c[nH]c2ccccc12 | inactive | inactive | inactive
22 | C[C@@H]1CCCCO[C@@H](CN(C)S(=O)(=O)c2ccc(F)cc2)[C@@H](C)CN([C@@H](C)CO)C(=O)c2cc(NC(=O)C3CCCCC3)ccc2O1 | inactive | inactive | inactive
23 | CC(C)NC(=O)N(C)C[C@H]1Oc2c(NC(=O)Cn3cnnn3)cccc2C(=O)N([C@H](C)CO)C[C@@H]1C | inactive | inactive | inactive
24 | O=C(NO)c1cccc(C(=O)N/N=C/[C@H](O)[C@@H](O)[C@H](O)[C@H](O)CO[C@H]2O[C@H](CO)[C@H](O)[C@H](O)[C@H]2O)c1 | inactive | inactive | inactive
25 | C[C@@H]1CN([C@H](C)CO)C(=O)c2cc(C#CC3(O)CCCC3)cnc2O[C@H]1CN(C)S(C)(=O)=O | inactive | inactive | inactive
